# Where “and” joins values, the source holds several entries; their conditions need not be identical. Identical values can stand only once. About 40 (0.2%) of roughly 16,000 compounds were called active. About 1% were inconclusive and are not listed. The call rests on the fitted dose curve; in most records, active means well fitted activation curve with a large enough effect; inconclusive means small, poorly fitted or top-dose-only effect, or another doubt; inactive means no such curve, though single readings can be large or run the other way. The list shows a part of the results.
# Target: Rap guanine nucleotide exchange factor 4 (Homo sapiens) (UniProt Q8WZA2)
# Assay: Validation qHTS for agonist of cAMP-regulated guanine nucleotide exchange factor 4 (EPAC2);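 on activation: exchange makes BODIPY-GDP fluorescence drop when released from Rap1B; series mostly up to about 150 µM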
# Settings: EPAC2 Rap1B BODIPY-GDP exchange, fluorescence; activation: stronger effect = higher value
# Method in brief: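 Fluorescent exchange assay: 100 nM EPAC2 with 250 nM RAP1B-BODIPY-GDP and 50 uM GDP; compound added, 5 min at room temperature, then read (ex 480/em 540 nm) every 5 min for 30 min. Normalized to 6.5 mM cAMP agonist control.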
# On the % scale 0 is the no-effect control and ±100 the full control effect; potency means the concentration at half of the fitted maximal effect.
# UniProt Q8WZA2, sequence (Q8WZA2 whole entry, looked up): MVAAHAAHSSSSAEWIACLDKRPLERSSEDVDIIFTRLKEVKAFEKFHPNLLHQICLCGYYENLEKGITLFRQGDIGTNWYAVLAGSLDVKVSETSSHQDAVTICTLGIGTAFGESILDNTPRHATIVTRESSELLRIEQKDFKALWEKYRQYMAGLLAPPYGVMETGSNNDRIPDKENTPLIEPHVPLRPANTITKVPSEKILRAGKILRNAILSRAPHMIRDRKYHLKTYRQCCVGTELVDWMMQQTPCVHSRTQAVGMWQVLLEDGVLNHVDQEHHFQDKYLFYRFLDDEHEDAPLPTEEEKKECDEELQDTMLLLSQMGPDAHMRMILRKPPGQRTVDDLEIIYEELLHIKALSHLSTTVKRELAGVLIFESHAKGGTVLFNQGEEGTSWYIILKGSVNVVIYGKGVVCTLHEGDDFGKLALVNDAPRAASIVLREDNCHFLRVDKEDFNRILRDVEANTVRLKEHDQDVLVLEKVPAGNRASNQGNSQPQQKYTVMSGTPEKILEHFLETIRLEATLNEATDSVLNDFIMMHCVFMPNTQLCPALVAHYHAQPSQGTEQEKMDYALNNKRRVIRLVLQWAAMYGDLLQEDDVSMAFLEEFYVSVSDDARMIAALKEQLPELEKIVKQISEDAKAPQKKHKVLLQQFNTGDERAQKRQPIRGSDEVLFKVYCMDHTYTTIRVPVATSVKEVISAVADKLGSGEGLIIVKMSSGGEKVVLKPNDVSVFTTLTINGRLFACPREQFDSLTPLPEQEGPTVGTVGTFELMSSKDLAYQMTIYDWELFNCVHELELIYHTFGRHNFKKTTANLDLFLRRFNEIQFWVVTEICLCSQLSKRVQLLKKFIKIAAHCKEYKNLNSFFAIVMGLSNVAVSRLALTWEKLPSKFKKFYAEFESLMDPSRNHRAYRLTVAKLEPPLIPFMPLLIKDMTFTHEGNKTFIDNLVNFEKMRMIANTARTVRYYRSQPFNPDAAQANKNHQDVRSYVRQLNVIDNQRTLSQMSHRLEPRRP
Structure (SMILES),activation,Potency
CCOc1ccc(/C=C/C(=O)c2cccs2)cc1,inactive: 0.839%,
CCN(C)C(=O)Oc1cccc([C@H](C)N(C)C)c1,inactive: 1.95%,
Nc1ccc(S(=O)(=O)Nc2ccnn2-c2ccccc2)cc1,inactive: -2.92% and inactive: 1.03% and inactive: -16.3%,
CCNc1ncc2nc(C)c(=O)n(CCOC)c2n1,inactive: -9.89%,
COC(=O)C(c1ccccc1Cl)N1CCc2sccc2C1 (stereo not given),inactive: -17.5% and inactive: 2.43%,
Cc1ccccc1-c1nc(N2CCN(C)CC2)c2ccccc2n1,inactive: -7.11%,
O=C(OC1Cc2c(O)cc(O)cc2OC1c1cc(O)c(O)c(O)c1-c1c(C2Oc3cc(O)cc(O)c3CC2O)cc(O)c(O)c1O)c1cc(O)c(O)c(O)c1 (stereo not given),inactive: -9.51%,
N#Cc1cccc(-c2nccc(NCc3cccs3)n2)c1,inactive: 1.38%,
COCCn1c(=O)c(C)nc2cnc(N3CCNCC3)nc21,inactive: -26.8%,
COc1ccc(Oc2ncc3nc(-c4cccs4)c(=O)n(-c4ccccc4)c3n2)cc1,inactive: 0.425%,
C=CC(C)(O)CC1[C@@]2(C)CCCC(C)(C)C2CC[C@]1(C)O (stereo not given in full),inactive: -28.7%,
CNCC(O)c1cccc(O)c1 (stereo not given),inactive: -7.27%,
O=C(NCC(O)CO)c1c(I)c(C(=O)NCC(O)CO)c(I)c(N(CCO)C(=O)CO)c1I (stereo not given),inactive: -1.97%,
COc1ccccc1N1CCN(CCCCNS(=O)(=O)c2cccc3c(N(C)C)cccc23)CC1,inactive: 0.394%,
NCCNC(=O)c1ncsc1-c1cccc(F)c1,inactive: 12.1%,
Cc1cc(CC(=O)O)n(C)c1C(=O)c1ccc(Cl)cc1,inactive: -4.28% and inactive: 4.55%,
Cc1ccc(C(=O)O[C@H](C(=O)O)[C@@H](OC(=O)c2ccc(C)cc2)C(=O)O)cc1 (tested in a mixture with another compound),inactive: -33.7%,
Cc1cc2nc3c(=O)[nH]c(=O)nc-3n(CC(O)C(O)C(O)CO)c2cc1C (stereo not given),,active: 89.1 µM
CO[C@@]1(NC(=O)CSC[C@@H](N)C(=O)O)C(=O)N2C(C(=O)O)=C(CSc3nnnn3C)CS[C@@H]21,inactive: -0.944%,
COc1c(O)cccc1O,inactive: -15.9%,
CCC1CN2CCc3cc(OC)c(OC)cc3C2CC1CC1NCCc2cc(OC)c(OC)cc21 (stereo not given),inactive: -0.527%,
Cc1ccccc1C1(CC(=O)N2CCC[C@H]2C(N)=O)CC(=O)N(C2CCCC2)C1=O (stereo not given in full),inactive: -7.12%,

Structure (SMILES),activation,Potency
Cc1cccc(CNc2ncnc3ccc(-c4ccc(C(=O)N(C)C)cc4)cc23)c1,inactive: -21.2%,
CN(C)C1C(=O)C(C(N)=O)=C(O)[C@@]2(O)C(=O)C3=C(O)c4c(O)ccc(Cl)c4C(O)[C@H]3C[C@@H]12 (stereo not given in full),inactive: 5.21%,
CC(=O)Nc1ncc([N+](=O)[O-])s1,inactive: -9.87%,
O=S(=O)(NCc1nnc2n1CCN(Cc1ccccc1Cl)CC2)c1ccccc1,inactive: -9.6%,
CS(=O)(=O)Nc1cccc(-c2cc(NCc3cccs3)ncn2)c1,inactive: -2.46%,
OCC1O[C@@H](OC2C(O)C(CO)O[C@@]2(CO)O[C@@H]2OC(CO)C(O)C(O)C2O)C(O)C(O)C1O (stereo not given in full),inactive: -4.83%,
Cc1cc2nc(N3CCCN(Cc4cccn4-c4ncccn4)CC3)nc(C)c2cc1C,inactive: 4.48%,
CCOC(=O)C1CCCN(C(=O)c2cnn(-c3ncc4c(n3)-c3ccccc3CCC4)c2C2CC2)C1 (stereo not given),inactive: -12.8%,
Cc1noc(C)c1-c1ccc2ncnc(N3CCC(C(=O)O)CC3)c2c1,inactive: -13.5%,
Clc1ccccc1-c1nccc(-n2ccnc2)n1,inactive: -17.4%,
CC12CCC(CC1)C(C)(C)O2,inactive: -14% and inactive: -7.73%,
CC(=O)N1CCC[C@@]2(CCN(Cc3ccccc3)C2)C1,inactive: 0.674%,
Cc1cc(-c2ccnc(-n3ncc(C(=O)NCC4COCCO4)c3C3CC3)n2)c(C)s1 (stereo not given),inactive: -1.41%,
O=C(NCc1nnc2n1CCN(Cc1cccc(Cl)c1)CC2)c1cccc(F)c1,inactive: -4.67%,
COc1ccccc1-c1ccc2ncnc(NCCNC(C)=O)c2c1,inactive: -3.35%,
Nc1ccc2cc3ccc(N)cc3nc2c1,,active: 89.1 µM
NC1(C(=O)O)CC(C(=O)O)C1 (stereo not given),inactive: -1.56% and inactive: -8.7% and inactive: 0.327%,
C[C@H](CCC(=O)O)[C@H]1CC[C@H]2[C@@H]3CC[C@@H]4C[C@H](O)CC[C@]4(C)[C@H]3C[C@H](O)[C@]12C,inactive: -7.34%,
O=c1cc(-c2ccc(O)cc2)oc2cccc(O)c12,inactive: -9.38%,
Cc1noc(C)c1-c1nc(NCc2cccnc2)c2ccccc2n1,inactive: -6.22%,
Cc1cccc(CNc2ncncc2-c2ccccc2Cl)c1,inactive: 10.1%,
Cc1noc(C)c1C(=O)N1CCC2(CC1)CN(c1ccccn1)C2,inactive: 2.39%,

Structure (SMILES),activation,Potency
CC#CCOC(=O)C1=CCCN(C)C1,inactive: -7.2% and inactive: -4.07%,
COc1ccc(C(=O)N2CCC3(CC2)CN(C(=O)Nc2ccccc2)C3)cc1,inactive: -5.38%,
CC(C)(C)c1onc(OCP(=O)(O)O)c1CC(N)C(=O)O (stereo not given),inactive: 12.3% and inactive: -15.3%,
COc1ccc(CN2CCOc3ccc(CN4CCC(O)CC4)cc3C2)c(OC)c1OC,inactive: -5.24%,
COc1ccc(-c2nc3cnc(Nc4cccc(OC)c4)nc3n(Cc3cccs3)c2=O)cc1,inactive: -19.2%,
O=S(=O)(O)c1ccc2nc(-c3ccccc3)[nH]c2c1,inactive: -3.31%,
CC(=O)N1C[C@H](O)C[C@H]1C(=O)O,inactive: -5.88%,
CN(C)C(=O)Nc1ccc(Cl)c(Cl)c1,inactive: -20.6%,
Cc1nc2sccn2c1CN1CCOc2ccc(CN3C[C@@H](C)O[C@@H](C)C3)cc2C1,inactive: -13.8%,
Cc1ccccc1C(=O)NC(C)c1nnc2n1CCN(Cc1ccccc1F)CC2 (stereo not given),inactive: 0.0011%,
COc1ccc2cc(C(C)C(=O)O)ccc2c1 (stereo not given),inactive: 0.614% and inactive: 0.307%,
COC(=O)C1N[C@@H]([C@@H](NC(=O)COc2ccccc2)C(=O)Nc2ccc(OC)cc2)SC1(C)C (stereo not given in full),inactive: -24.1%,
c1ccc(C(c2ccccc2)N2CCC3(CCNCC3)CC2)cc1,inactive: 3.13%,
Clc1ccccc1-c1nccc(NCc2cccs2)n1,inactive: -21.7%,
COC(=O)c1ccc(CN2CCC3(CCC(CNC(=O)c4ccccc4)O3)CC2)cc1 (stereo not given),inactive: -15%,
COC(=O)N1CCC[C@@]2(CCN(Cc3cc(C(F)(F)F)cc(C(F)(F)F)c3)C2)C1,inactive: -0.822%,
COCc1c(C(=O)N2CCCC(C)C2)cnn1-c1nccc(-c2cc(C)sc2C)n1 (stereo not given),inactive: -5.58%,
OC(c1cccnc1)c1ccc2c(c1)CN(Cc1ccc(-c3ccccc3Cl)o1)CCO2 (stereo not given),inactive: -11.2%,
COc1ccc(C(=O)N2CCC3(CCN(Cc4ccccc4)CC3)CC2)cc1,inactive: -2.93%,
O=C(O)CCCCCCCCc1cn(CN2C(=O)c3ccccc3C2=O)nn1,inactive: -2.05%,
O=C(O)C=Cc1ccc(Cn2ccnc2)cc1,inactive: -11.7%,
Cc1ncc2c(c1CNS(=O)(=O)N(C)C)CCN(C(=O)c1ccccc1F)C2,inactive: -17.2%,

Structure (SMILES),activation,Potency
Oc1cc2c(cc1O)[C@H](c1ccccc1)CNCC2,inactive: -10.8%,
COc1ccccc1CC(Cc1nc2ccccc2[nH]1)c1nc2ccccc2[nH]1 (stereo not given),inactive: -14.8%,
C#C[C@]1(OC(C)=O)CCC2C3CCC4=CC(=O)CCC4C3CC[C@]21C (stereo not given in full),inactive: 9.2%,
C=C(Nc1ccc(OCC)cc1)Nc1ccc(OCC)cc1,inactive: -18.8% and inactive: 1.72%,
O=C(c1cc(C(F)(F)F)cc(C(F)(F)F)c1)N1CCC2(CCCN(Cc3ccncc3)C2)CC1,inactive: -33.7%,
Cn1c(=O)c(-c2cccs2)nc2cnc(N3CCNCC3)nc21,inactive: 15.1%,
Cc1cccc(-c2cnc(C)nc2C2CCCN(C(=O)c3cccc(Cn4cccn4)c3)C2)c1 (stereo not given),inactive: -14.1%,
Cc1c(C(=O)NCC(C)(C)N2CCOCC2)cnn1-c1ncc2c(n1)-c1ccccc1CCC2,inactive: -9.03%,
CC(=O)c1ccc(F)c(-c2cc(C)cc3c2OC(CNC(=O)c2ccnn2C)C3)c1 (stereo not given),inactive: -7.19%,
COc1ccc(-c2coc3cc(OC)cc(OC)c3c2=O)cc1,inactive: -8.25%,
O=c1c(O)c(-c2ccccc2)oc2cc(O)ccc12,inactive: -19.1%,
COc1cc(CN2CCCC(c3nc(-c4ccncc4)ncc3-c3ccccc3)C2)ccc1O (stereo not given),inactive: -21%,
NCC1O[C@H](O[C@@H]2C(O)[C@H](O[C@H]3OC(CO)C(O)C(N)C3O)[C@@H](N)C[C@H]2N)[C@@H](N)CC1O (stereo not given in full),inactive: -5.58%,
CC(C)C[C@@H](CO)N1CCN(Cc2cccc(C#N)c2)CCC1=O,inactive: -27.7%,
CCOC(=O)c1c[nH]c2cc(OCC(C)C)c(OCC(C)C)cc2c1=O,inactive: -9.73%,
Cc1noc(C)c1-c1cncnc1N(C)Cc1ccco1,inactive: 4.09%,
CC(=O)C1CCC2C3CCC4=CC(=O)CC[C@@]4(C)C3CC[C@]12C (stereo not given in full),inactive: -17.9%,
C=C[C@]1(C)CC(=O)[C@@]2(O)[C@@]3(C)C(O)CCC(C)(C)C3C(O)C(OC(C)=O)[C@@]2(C)O1 (stereo not given in full),inactive: 0.289%,
COc1ccc(C2CNC(=O)C2)cc1OC1CCCC1 (stereo not given),inactive: 7.95% and inactive: 2.86% and inactive: -22.4%,

# Source: PubChem BioAssay AID1645887 (National Center for Advancing Translational Sciences (NCATS), 2021)
